Laboratory results: PubChem BioAssay (NCATS)
Inconclusive means that the source gave no clear call. Such entries were picked first, then a sample of the others. A potency beside an inconclusive call is a rough fit, not a confirmed value. Activity calls are given as the source filed them. Calls follow the shape of the dose curve; as a rule, active = well fitted curve in the direction sought with a large enough effect; inconclusive = small, poorly fitted or top-dose-only effect, or another doubt; inactive = no such curve, though single readings can be large; an effect the other way counts as inactive or inconclusive.

What was measured:
CASKI = test: Primary qHTS to identify gynecologic anti-cancer compounds using libraries of approved drugs and bioactive compounds (AID 1345084); settings: Gynecologic cancer cell panel viability, ATPlite luminescence, 48 h; series mostly up to 57.5 µM; also: nearly all actives have a fitted effect of over 55% in size; as to activity change, negative = cytotoxicity: % is scaled to controls: 0 for no effect and ±100 for the full control effect
How it was run: (§1)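 In this quantitative HTS, cell killing is estimated from loss of ATP-dependent luciferase light. Cells see five compound concentrations over a 48 h exposure.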

Es-2 = test: as above; settings: Gynecologic cancer cell panel viability, ATPlite luminescence, 48 h; series mostly up to 57.5 µM
How it was run: as §1

Hek293T = test: as above; settings: Gynecologic cancer cell panel viability, ATPlite luminescence, 48 h, control line for the selectivity index; series mostly up to 57.5 µM
How it was run: as §1

JEG-3 = test: as above; settings: Gynecologic cancer cell panel viability, ATPlite luminescence, 48 h; series mostly up to 57.5 µM
How it was run: as §1

OV90 = test: as above; settings: Gynecologic cancer cell panel viability, ATPlite luminescence, 48 h; series mostly up to 57.5 µM
How it was run: as §1

PA-1 = test: as above; settings: Gynecologic cancer cell panel viability, ATPlite luminescence, 48 h; series mostly up to 57.5 µM
How it was run: as §1

SKOV3 = test: as above; settings: Gynecologic cancer cell panel viability, ATPlite luminescence, 48 h; activity change, negative = cytotoxicity: at 57.5 µM (top of the series) unless noted
How it was run: as §1

Tov-21-G = test: as above; settings: Gynecologic cancer cell panel viability, ATPlite luminescence, 48 h; series mostly up to 57.5 µM
How it was run: as §1

Tov112D = test: as above; settings: Gynecologic cancer cell panel viability, ATPlite luminescence, 48 h; series mostly up to 57.5 µM
How it was run: as §1

[1] = qHTS assay to identify inhibitors of the type 1 interferon - major histocompatibility complex class I in skeletal muscle: Counter screen cell viability and HiBit confirmation (AID 1347412); settings: iHSKM muscle cells + IFN-b, HiBiT or CellTiter-Glo, 24 h, Viability; also: nearly all actives have a fitted effect of over 60% in size; as to activity change, negative = inhibition: % is scaled to controls: 0 for no effect and ±100 for the full control effect
How it was run: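 Human myoblast knock-in line, 4.0 ng/ml IFN-beta stimulation, 24 h compound treatment. Endpoints: HiBiT lytic luminescence (HLA-B level) and CellTiter Glo (ATP). Dosing 12 concentrations, 3-fold steps, 46 uM highest final.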

HeLa = test: Primary qHTS to identify gynecologic anti-cancer compounds using libraries of approved drugs and bioactive compounds (AID 1345084); settings: Gynecologic cancer cell panel viability, ATPlite luminescence, 48 h; series mostly up to 57.5 µM; also: nearly all actives have a fitted effect of over 55% in size; as to activity change, negative = cytotoxicity: % is scaled to controls: 0 for no effect and ±100 for the full control effect
How it was run: as §1

astro = test: Drug repurposing screens with cells derived from glioblastoma tumor samples (AID 1345199); settings: viability, ATP luminescence, 48 h; activity, negative = cell killing: at 45.9 µM (top of the series); also: nearly all actives have a fitted effect of over 40% in size
How it was run: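 Primary testing used CD133+ neurospheres from four GBM patients, seven concentrations, 48 h exposure and ATP-based viability; confirmation added three slower-growing patient lines.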
Potency is read from the fitted curve at half-maximal effect; tags tell the direction and shape of the fitted curve.

**Q.** Which results are given for `CC(C)CC(=O)Nc1n[nH]c2c1CN(C(=O)C1CCN(C)CC1)C2(C)C`?
**A.** Potency (CASKI): inconclusive: 6.31 µM [cytotoxic, full curve, poor fit]; Potency (Es-2): active: 7.08 µM; Potency (Hek293T): active: 3.98 µM; Potency (JEG-3): inactive; Potency (OV90): active: 7.94 µM; Potency (PA-1): active: 0.447 µM; Potency (SKOV3): inconclusive: 3.55 µM [cytotoxic, full curve]; Potency (Tov-21-G): inconclusive: 0.447 µM [cytotoxic, full curve, poor fit]; Potency (Tov112D): active: 7.94 µM; activity change, negative = inhibition ([1]; at 45.9 µM (top of the series)): inactive: 10.8%

**Q.** With `C[C@@H](Cc1cc2c(c(C(N)=O)c1)N(CCCO)CC2)NCCOc1ccccc1OCC(F)(F)F` as the molecule, how does the Potency (CASKI) read?
**A.** inconclusive: 39.8 µM [cytotoxic, single point]

**Q.** And the Potency (Es-2)?
**A.** inconclusive: 39.8 µM [cytotoxic, single point]

**Q.** What about the Potency (HeLa) of the same molecule?
**A.** inconclusive: 35.5 µM [cytotoxic, single point]

**Q.** And the Potency (Hek293T)?
**A.** inconclusive: 39.8 µM [cytotoxic, single point]

**Q.** And the Potency (OV90)?
**A.** inconclusive: 35.5 µM [cytotoxic, single point]

**Q.** And the Potency (PA-1)?
**A.** active: 31.6 µM

**Q.** And the Potency (SKOV3)?
**A.** inconclusive: 17.8 µM [cytotoxic, single point]

**Q.** What about the Potency (Tov-21-G) of the same molecule?
**A.** inconclusive: 35.5 µM [cytotoxic, single point]

**Q.** And the Potency (Tov112D)?
**A.** inconclusive: 39.8 µM [cytotoxic, single point]

**Q.** What does the source list for `CN1c2ccccc2C(=O)N2CCc3c([nH]c4ccccc34)C21` (centres undefined)?
**A.** Potency (CASKI): active: 7.08 µM; Potency (Es-2): active: 14.1 µM; Potency (HeLa): active: 7.94 µM; Potency (Hek293T): inconclusive: 6.31 µM [cytotoxic, full curve, poor fit]; Potency (JEG-3): active: 3.98 µM; Potency (OV90): inconclusive: 25.1 µM [cytotoxic, single point]; Potency (PA-1): active: 7.08 µM; Potency (SKOV3): inconclusive: 3.16 µM [cytotoxic, full curve, poor fit]; Potency (Tov-21-G): active: 8.91 µM; Potency (Tov112D): active: 3.55 µM

**Q.** Which Potency (CASKI) does the source give for `Nc1nc(=S)c2[nH]cnc2[nH]1` here?
**A.** active: 3.55 µM

**Q.** And the Potency (Es-2)?
**A.** active: 7.08 µM

**Q.** What about the Potency (HeLa) of the same molecule?
**A.** active: 1.41 µM

**Q.** What about the Potency (Hek293T) of the same molecule?
**A.** inconclusive: 8.91 µM [cytotoxic, partial curve, poor fit]

**Q.** And the Potency (JEG-3)?
**A.** active: 3.16 µM

**Q.** And the Potency (OV90)?
**A.** active: 8.91 µM

**Q.** What about the Potency (PA-1) of the same molecule?
**A.** active: 3.55 µM

**Q.** What about the Potency (SKOV3) of the same molecule?
**A.** inconclusive: 17.8 µM [cytotoxic, partial curve, poor fit]

**Q.** And the Potency (Tov112D)?
**A.** active: 1.41 µM

**Q.** Which Potency (CASKI) does the source give for `COc1cc2c(cc1OC)CN(CCc1ccc(NC(=O)c3cccc4c(=O)c5cccc(OC)c5[nH]c34)cc1)CC2` here?
**A.** inactive

**Q.** For `Cc1c(-c2ccc(O)cc2)n(Cc2ccc(OCCN3CCCCCC3)cc2)c2ccc(O)cc12`, which Potency (CASKI) is on record?
**A.** inconclusive: 39.8 µM [cytotoxic, single point]

**Q.** And the Potency (Es-2)?
**A.** inconclusive: 39.8 µM [cytotoxic, single point]

**Q.** What about the Potency (HeLa) of the same molecule?
**A.** inconclusive: 39.8 µM [cytotoxic, single point]

**Q.** What about the Potency (Hek293T) of the same molecule?
**A.** inactive

**Q.** What about the Potency (OV90) of the same molecule?
**A.** inconclusive: 39.8 µM [cytotoxic, single point]

**Q.** And the Potency (PA-1)?
**A.** inconclusive: 39.8 µM [cytotoxic, single point]

**Q.** And the Potency (SKOV3)?
**A.** inconclusive: 39.8 µM [cytotoxic, single point]

**Q.** What about the Potency (Tov112D) of the same molecule?
**A.** inconclusive: 35.5 µM [cytotoxic, single point]

**Q.** What about the Potency (astro) of the same molecule?
**A.** inconclusive: 22.4 µM [inhibitor, partial curve]

**Q.** What does the source list for `NC(=O)Nc1cc(-c2cccc(F)c2)sc1C(=O)N[C@H]1CCCNC1`?
**A.** Potency (CASKI): active: 1.78 µM; Potency (Es-2): active: 0.631 µM; Potency (HeLa): active: 1.78 µM; Potency (Hek293T): active: 1 µM; Potency (JEG-3): inconclusive: 2.82 µM [cytotoxic, full curve]; Potency (OV90): active: 2.82 µM; Potency (PA-1): active: 2.82 µM; Potency (SKOV3): active: 0.631 µM; Potency (Tov-21-G): inconclusive: 0.501 µM [cytotoxic, full curve, poor fit]; Potency (Tov112D): active: 1.78 µM; Potency [1]: inconclusive: 0.701 µM [cytotoxic, full curve]

**Q.** For `O=c1[nH]c(-c2ccc(C(F)(F)F)cc2)nc2c1CSCC2`, which Potency (CASKI) is on record?
**A.** inconclusive: 28.2 µM [cytotoxic, single point]

**Q.** What about the Potency (Es-2) of the same molecule?
**A.** active: 28.2 µM

**Q.** And the Potency (HeLa)?
**A.** inconclusive: 39.8 µM [cytotoxic, single point]

**Q.** And the Potency (Hek293T)?
**A.** inconclusive: 39.8 µM [cytotoxic, single point]

**Q.** And the Potency (JEG-3)?
**A.** inconclusive: 39.8 µM [cytotoxic, single point]

**Q.** What about the Potency (OV90) of the same molecule?
**A.** inconclusive: 35.5 µM [cytotoxic, single point]

**Q.** What about the Potency (PA-1) of the same molecule?
**A.** inconclusive: 31.6 µM [cytotoxic, single point]

**Q.** What about the Potency (SKOV3) of the same molecule?
**A.** inconclusive: 31.6 µM [cytotoxic, single point]

**Q.** And the Potency (Tov-21-G)?
**A.** inconclusive: 31.6 µM [cytotoxic, single point]

**Q.** And the Potency (Tov112D)?
**A.** inconclusive: 39.8 µM [cytotoxic, single point]
